Laboratory results: PubChem BioAssay (Tox21)
Several values for one entry are separate records, joined by “and”; a condition that tells them apart may be missing. Equal entries are not always repeated. Activity calls are given as the source filed them. Unless noted, the call rests on the fitted dose curve; in most records, active means well fitted curve in the direction sought with a large enough effect in the repeat runs; inconclusive means weak or mixed curves; inactive means no such curve, though single readings can be large; an effect the other way counts as inactive or inconclusive.

Tests used:
[1] = qHTS assay to identify small molecule antagonists of the androgen receptor (AR) signaling pathway using the MDA cell line - cell viability counter screen (AID 743041; further: nearly all actives have a fitted effect of over 45% in size; on viability change, negative = cytotoxic: on the % scale 0 is the no-effect control and ±100 the full control effect); settings: MDA-kb2 viability, CellTiter-Fluor, 16 h, cells co-treated with R1881 androgen agonist; viability change, negative = cytotoxic: at 70.3 µM (top of the series) unless noted
How it was run: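 Viability read by CellTiter-Fluor fluorescence in the same wells as the antagonist screen, added after 15.5 h of a 16 h, 37C exposure. Human breast carcinoma MDA-kb2 AR-luc cells, compounds co-dosed with agonist R1881.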

[2] = qHTS assay to identify small molecule antagonists of the thyroid receptor (TR) signaling pathway (AID 743065); further: nearly all actives have a fitted effect of over 55% in size
How it was run: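 Antagonism measured as loss of luciferase signal in GH3 cells stably carrying a TRE-luciferase reporter, co-treated with compound and T3 (1 nM final) for 23.5 h at 37 C. Viability was read in the same well by CellTiter-Fluor.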

[3] = tested on: thyroid hormone receptor (rat, GH3 cells); experiment: qHTS assay to identify small molecule agonists of the thyroid receptor (TR) signaling pathway (AID 743066; calls by dose curve; on activation: on the % scale 0 is the no-effect control and ±100 the full control effect); settings: GH3.TRE-Luc cells, TR agonist luciferase, 24 h; activation: at 83.9 µM (top of the series) unless noted
[4] = qHTS assay to identify small molecule antagonists of the estrogen receptor alpha (ER-alpha) signaling pathway - cell viability counter screen (AID 743074; calls by dose curve;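 further: HEK293 cells carrying ER-alpha-UAS-bla reporter stimulated with 17beta-estradiol; nearly all actives have a fitted effect of over 45% in size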)
[5] = qHTS assay to identify small molecule antagonists of the estrogen receptor alpha (ER-alpha) signaling pathway using the BG1 cell line - cell viability counter screen (AID 743081); settings: BG1Luc4E2 viability, CellTiter-Fluor, 22 h; activity change, negative = cytotoxicity: at 70.3 µM (top of the series);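 further: compound given together with 17beta-estradiol as the ER stimulus; nearly all actives have a fitted effect of over 45% in size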
[6] = qHTS assay to identify aromatase inhibitors - cell viability counter screen (AID 743084); settings: MCF-7 aro ERE viability, CellTiter-Fluor, 24 h; activity change, negative = cytotoxicity: at 70.3 µM (top of the series) unless noted;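 further: cells stimulated with testosterone during compound exposure; nearly all actives have a fitted effect of over 55% in size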
[7] = molecular target: Peroxisome proliferator-activated receptor gamma (Homo sapiens) (UniProt P37231); experiment: qHTS assay to identify small molecule agonists of the peroxisome proliferator-activated receptor gamma (PPARg) signaling pathway (AID 743094; active means well fitted activation curve with a large enough effect in the signal ratio in the repeat runs, not every such curve was filed as active; inconclusive means weak or mixed curves, or effect the other way; inactive means no such curve, though single readings can be large or run the other way; the % refers to the signal ratio; on activation: on the % scale 0 is the no-effect control and ±100 the full control effect); settings: HEK293H PPARg-UAS-bla, beta-lactamase FRET ratio, 17 h
Sequence of UniProt P37231 (P37231 whole entry, looked up): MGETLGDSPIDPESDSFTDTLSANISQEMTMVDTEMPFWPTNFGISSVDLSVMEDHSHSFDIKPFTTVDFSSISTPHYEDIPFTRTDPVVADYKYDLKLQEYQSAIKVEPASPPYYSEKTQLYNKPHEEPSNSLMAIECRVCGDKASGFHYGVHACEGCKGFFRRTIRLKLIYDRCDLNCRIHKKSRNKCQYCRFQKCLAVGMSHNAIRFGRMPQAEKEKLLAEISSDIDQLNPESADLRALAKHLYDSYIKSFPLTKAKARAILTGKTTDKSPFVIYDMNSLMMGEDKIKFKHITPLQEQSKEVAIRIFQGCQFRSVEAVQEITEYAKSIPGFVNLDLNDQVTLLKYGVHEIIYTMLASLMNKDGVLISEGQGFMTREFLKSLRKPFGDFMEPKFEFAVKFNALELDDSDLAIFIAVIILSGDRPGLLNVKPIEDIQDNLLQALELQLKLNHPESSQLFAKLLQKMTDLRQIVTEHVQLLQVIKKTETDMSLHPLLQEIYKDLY
How it was run: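 Cells from the PPARg UAS-bla HEK293H line are plated and incubated 5 h at 37C. Compounds in DMSO are pinned in and left 17 h at 37C. LiveBLAzer B/G substrate is then added for 1 h at room temperature before fluorescence is measured.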

[8] = molecular target: Estrogen receptor (Homo sapiens) (UniProt P03372); experiment: qHTS assay to identify small molecule antagonists of the estrogen receptor alpha (ER-alpha) signaling pathway (AID 743069; active means well fitted curve in the direction sought with a large enough effect in the signal ratio in the repeat runs, not every such curve was filed as active; inconclusive means weak or mixed curves, or effect the other way; inactive means no such curve, though single readings can be large or run the other way; the % refers to the signal ratio; on activity, negative = inhibition: on the % scale 0 is the no-effect control and ±100 the full control effect); settings: HEK293 ER-alpha-UAS-bla, beta-lactamase ratio, antagonist mode; activity, negative = inhibition: at 69.4 µM (top of the series) unless noted
Sequence of UniProt P03372 (P03372 whole entry, looked up): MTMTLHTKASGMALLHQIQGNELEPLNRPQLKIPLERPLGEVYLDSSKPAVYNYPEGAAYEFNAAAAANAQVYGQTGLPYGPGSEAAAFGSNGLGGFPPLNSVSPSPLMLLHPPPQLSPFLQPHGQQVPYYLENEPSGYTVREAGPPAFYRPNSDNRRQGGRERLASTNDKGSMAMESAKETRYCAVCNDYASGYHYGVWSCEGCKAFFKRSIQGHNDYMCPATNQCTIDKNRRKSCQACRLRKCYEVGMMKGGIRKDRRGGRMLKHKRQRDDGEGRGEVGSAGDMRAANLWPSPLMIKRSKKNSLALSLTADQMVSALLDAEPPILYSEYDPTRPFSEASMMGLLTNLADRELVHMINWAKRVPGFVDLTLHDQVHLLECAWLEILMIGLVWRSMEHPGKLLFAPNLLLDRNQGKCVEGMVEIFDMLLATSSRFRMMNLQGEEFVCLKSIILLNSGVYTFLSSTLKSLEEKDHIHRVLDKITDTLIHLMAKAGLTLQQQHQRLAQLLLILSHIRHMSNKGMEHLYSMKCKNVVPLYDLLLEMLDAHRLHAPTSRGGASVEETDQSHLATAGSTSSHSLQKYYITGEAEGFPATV
How it was run: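 Antagonist mode: compounds in DMSO were co-added with 17beta-estradiol to ER-alpha-bla HEK293 cells (2% charcoal-stripped serum) and left 18 h at 37C. Reporter inhibition was measured as FRET fluorescence after 2 h LiveBLAzer substrate at room temperature.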

[9] = molecular target: Estrogen receptor (Homo sapiens) (UniProt P03372); experiment: qHTS assay to identify small molecule agonists of the estrogen receptor alpha (ER-alpha) signaling pathway using the BG1 cell line (AID 743079); settings: BG1Luc4E2 cells, ERE-luciferase agonist, 22 h; activation: at 70.3 µM (top of the series) unless noted; further: nearly all actives have a fitted effect of over 20% in size
[10] = qHTS assay to identify small molecule antagonists of the estrogen receptor alpha (ER-alpha) signaling pathway using the BG1 cell line (AID 743080; calls by dose curve;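 further: BG1 cells stimulated with 17beta-estradiol alongside compound; nearly all actives have a fitted effect of over 25% in size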); settings: BG1Luc4E2 ERE-luciferase antagonist mode, luminescence; activity change, negative = inhibition: at 70.3 µM (top of the series) unless noted
How it was run: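 After 5 days in phenol-red-free 10% charcoal-stripped FBS medium, BG1-Luc-4E2 cells were seeded, left 24 h at 37 C, co-treated with compounds and 17beta-estradiol for 21.5 h, then assayed for viability and luciferase.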

[11] = qHTS assay to identify small molecule that activate the aryl hydrocarbon receptor (AhR) signaling pathway - cell viability counter screen (AID 743086); further: nearly all actives have a fitted effect of over 45% in size
How it was run: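 Cytotoxicity counter screen: CellTiter-Fluor signal (30 min, 37 C) in 4000 HepG2 cells/well carrying the DRE-luciferase reporter, following 24 h compound exposure at 37 C.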

[12] = molecular target: Estrogen receptor (Homo sapiens) (UniProt P03372); experiment: qHTS assay to identify small molecule agonists of the estrogen receptor alpha (ER-alpha) signaling pathway (AID 743075; calls by dose curve;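 further: HEK293 GripTite cells with ER-alpha and UAS-driven beta-lactamase reporter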)
[13] = molecular target: Aryl hydrocarbon receptor (Homo sapiens) (UniProt P35869); experiment: qHTS assay to identify small molecule that activate the aryl hydrocarbon receptor (AhR) signaling pathway (AID 743085); further: nearly all actives have a fitted effect of over 15% in size
Sequence of UniProt P35869 (P35869 whole entry, looked up): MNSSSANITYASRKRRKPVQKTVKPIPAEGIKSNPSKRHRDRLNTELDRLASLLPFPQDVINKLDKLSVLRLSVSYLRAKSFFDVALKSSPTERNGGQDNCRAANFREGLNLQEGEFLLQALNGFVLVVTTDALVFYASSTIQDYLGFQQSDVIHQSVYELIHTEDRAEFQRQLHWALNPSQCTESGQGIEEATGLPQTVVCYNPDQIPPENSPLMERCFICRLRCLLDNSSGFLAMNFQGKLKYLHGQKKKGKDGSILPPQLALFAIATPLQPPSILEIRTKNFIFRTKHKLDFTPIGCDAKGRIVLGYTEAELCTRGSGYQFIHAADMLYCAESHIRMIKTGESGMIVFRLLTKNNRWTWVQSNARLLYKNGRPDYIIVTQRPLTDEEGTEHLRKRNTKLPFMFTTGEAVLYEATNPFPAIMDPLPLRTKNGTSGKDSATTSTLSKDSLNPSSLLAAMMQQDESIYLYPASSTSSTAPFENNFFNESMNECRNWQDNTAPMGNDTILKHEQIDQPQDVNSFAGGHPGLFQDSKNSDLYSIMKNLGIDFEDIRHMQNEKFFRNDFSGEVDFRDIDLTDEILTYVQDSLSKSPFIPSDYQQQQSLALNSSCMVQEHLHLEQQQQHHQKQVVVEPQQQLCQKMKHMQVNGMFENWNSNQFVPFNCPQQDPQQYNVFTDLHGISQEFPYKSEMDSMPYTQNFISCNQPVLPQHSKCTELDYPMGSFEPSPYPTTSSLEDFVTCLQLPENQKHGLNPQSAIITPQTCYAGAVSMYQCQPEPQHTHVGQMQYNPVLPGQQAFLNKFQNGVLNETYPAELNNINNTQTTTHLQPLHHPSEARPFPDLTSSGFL
How it was run: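 Cell line HG2L7.5c1 (human hepatoma, 20× DRE-luc). Plated, 5 h 37C, compound/DMSO added, 24 h 37C. CellTiter-Fluor 30 min 37C → fluorescence; then ONE-Glo 30 min RT → luminescence.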

[14] = qHTS assay to identify small molecule antagonists of the thyroid receptor (TR) signaling pathway - cell viability counter screen (AID 743064); settings: GH3.TRE-Luc viability, CellTiter-Fluor, 24 h; activity change, negative = cytotoxic: at 70.3 µM (top of the series) unless noted; further: nearly all actives have a fitted effect of over 50% in size
How it was run: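 Fluorescence from CellTiter-Fluor, added after 23.5 h exposure at 37 °C, reported viability of GH3.TRE-Luc cells co-treated with compound and 1 nM T3. Measured in the same wells as the luciferase TR readout.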

[15] = activation: at 57 µM (top of the series) unless noted
Potency means the concentration at half of the fitted maximal effect; tags describe the fitted curve by direction and shape or compound fluorescence and quenching.

O=S(=O)(O)C(F)(F)C(F)(F)C(F)(F)C(F)(F)C(F)(F)C(F)(F)C(F)(F)C(F)(F)F
active: Potency [2] 51.9 µM and 61.1 µM
inconclusive: Potency [1] 77 µM [cytotoxic, partial curve, poor fit] | activation [3] -7.39% [phenotype inactive] | Potency [4] 1.74 µM [cytotoxic, full curve] | Potency [5] 77 µM [cytotoxic, partial curve, poor fit] | Potency [6] 43.3 µM [cytotoxic, partial curve, poor fit] | activation [7, 15] -10.9%

Cc1cccc(N=Nc2ccc(N(C)C)cc2)c1
inconclusive: Potency [1] 43.3 µM [cytotoxic, partial curve, poor fit] | activation [3] 6.62% [phenotype inactive] [at 95.2 µM] | Potency [4] 2.19 µM [rising, full curve, poor fit] | Potency [10] 312 nM [rising, full curve] and 486 nM [rising, full curve] | Potency [6] 12.4 µM [cytotoxic, partial curve] and 21.7 µM [cytotoxic, partial curve, poor fit] | Potency [11] 27.8 µM [falling, partial curve] and 13.7 µM [falling, partial curve] | activation [7, 15] -12.5% [at 78.9 µM]
active: Potency [9] 139 nM and 864 nM | Potency [5] 31.2 µM and 27.3 µM
inactive: Potency [8] | activation ([7]; at 57 µM (top of the series)) -2.84%

CC1COC(Cn2cncn2)(c2ccc(Oc3ccc(Cl)cc3)cc2Cl)O1 (stereo not given)
inconclusive: Potency [1] 30.6 µM [cytotoxic, partial curve] | Potency [3] 19.3 µM [inhibitor, partial curve, poor fit] | Potency [8] 43.6 µM [partial curve] | Potency [4] 43.6 µM [cytotoxic, partial curve, poor fit] | Potency [12] 4.36 µM [falling, full curve] | Potency [9] 6.86 µM [inhibitor, full curve] | Potency [5] 54.5 µM [cytotoxic] | Potency [6] 68.6 µM [cytotoxic, single point] | Potency [11] 24.3 µM | activation [7, 15] -15%
active: Potency [10] 13.7 µM

CCOC(=O)C1OC1(C)c1ccccc1 (stereo not given)
inconclusive: activation [3] 0.0623% [phenotype inactive] [at 95.2 µM] | Potency [4] 0.044 µM [cytotoxic, full curve, poor fit]
inactive: Potency [1] | Potency [6]

COc1cccc(C(=O)NN(C(=O)c2cc(C)cc(C)c2)C(C)(C)C)c1C
inconclusive: Potency [1] 68.6 µM [rising, single point] | Potency [2] 38.6 µM [inhibitor, partial curve] | Potency [5] 68.6 µM [cytotoxic, partial curve, poor fit] | Potency [6] 61.1 µM [cytotoxic, single point] | Potency [13] 24.3 µM [activator, partial curve, poor fit] | Potency [11] 38.6 µM [falling, partial curve] | activation [7, 15] -14.1%

O=C(CCl)C(Cl)Cl
inconclusive: Potency [1] 69.2 µM [cytotoxic, partial curve, poor fit] | Potency [3] 38.9 µM [inhibitor, partial curve, poor fit] | Potency [8] 55.5 µM | Potency [10] 15.5 µM [rising, full curve] | Potency [5] 61.7 µM [cytotoxic, partial curve] | Potency [11] 17.4 µM [falling, partial curve] | Potency [7, 15] 24.8 µM [fluorescent, full curve]
active: Potency [2] 12.3 µM | Potency [4] 39.3 µM | Potency [12] 13.9 µM [inconclusive] | Potency [9] 24.6 µM | Potency [6] 8.71 µM

O=C1C[C@@H]2OCC=C3CN4CC[C@]56c7ccccc7N1[C@H]5[C@H]2[C@H]3C[C@H]46
inconclusive: Potency [1] 33.5 µM [cytotoxic, partial curve, poor fit] | Potency [14] 33.5 µM [cytotoxic, single point] | Potency [5] 33.5 µM [cytotoxic, partial curve, poor fit] | Potency [6] 26.6 µM [cytotoxic, partial curve, poor fit]

[Hg+2].[I-].[I-]
inconclusive: Potency [8] 49 µM [inhibitor, partial curve] | Potency [9] 61.1 µM [inhibitor, partial curve] | Potency [10] 2.73 µM [rising, full curve] | Potency [11] 30.6 µM
active: Potency [1] 54.5 µM | Potency [4] 43.6 µM | Potency [12] 54.9 µM [inconclusive] | Potency [5] 68.6 µM | Potency [6] 6.86 µM
